Key:
Details in all cases: 72 h
[1] = test system: Caco-2; assay: cell viability relative to DMSO; higher = less toxic
[2] = test system: Calu-3; assay: as above
[3] = test system: HepG2; assay: as above
[4] = test system: U2OS; assay: as above
[5] = test system: Vero E6; assay: as above
[6] = test system: Caco-2; assay: relative viability EC50 (midpoint between 100% and the lowest measured viability); higher = less toxic
[7] = test system: Calu-3; assay: as above
[8] = test system: HepG2; assay: as above
[9] = test system: U2OS; assay: as above
[10] = test system: Vero E6; assay: as above
[11] = test system: Caco-2; assay: drug sensitivity score (DSS) for viability; higher = more toxic; extreme values may be limits of the assay
[12] = test system: Calu-3; assay: as above
[13] = test system: HepG2; assay: as above
[14] = test system: U2OS; assay: as above
[15] = test system: Vero E6; assay: as above

COC(=O)[C@H](CCCNC(=N)N)NS(=O)(=O)c1ccc(C)cc1 [TAME]
cell viability ([1]; 1 nM): 94.4% | cell viability ([1]; 10 nM): 108% | cell viability ([1]; 100 nM): 104% | cell viability ([1]; 1000 nM): 103% | cell viability ([1]; 10000 nM): 100% | cell viability ([2]; 1 nM): 92.7% | cell viability ([2]; 10 nM): 98% | cell viability ([2]; 100 nM): 89.1% | cell viability ([2]; 1000 nM): 94.9% | cell viability ([2]; 10000 nM): 103% | cell viability ([3]; 1 nM): 102% | cell viability ([3]; 10 nM): 97.8% | cell viability ([3]; 100 nM): 106% | cell viability ([3]; 1000 nM): 98.3% | cell viability ([3]; 10000 nM): 113% | cell viability ([4]; 1 nM): 94.9% | cell viability ([4]; 10 nM): 97.7% | cell viability ([4]; 100 nM): 97% | cell viability ([4]; 1000 nM): 106% | cell viability ([4]; 10000 nM): 103% | cell viability ([5]; 1 nM): 95.9% | cell viability ([5]; 10 nM): 101% | cell viability ([5]; 100 nM): 98.7% | cell viability ([5]; 1000 nM): 98.1% | cell viability ([5]; 10000 nM): 108% | relative viability EC50 [6]: > 10 µM | relative viability EC50 [7]: > 10 µM | relative viability EC50 [8]: > 10 µM | relative viability EC50 [9]: > 10 µM | relative viability EC50 [10]: > 10 µM | drug sensitivity score [11]: 0 | drug sensitivity score [12]: 0 | drug sensitivity score [13]: 0 | drug sensitivity score [14]: 0 | drug sensitivity score [15]: 0

— the supplement of paper PMC13380429
